Here are results for 84 variants from the RNAGym collection of RNA variant scans (doi:10.1093/nar/gkz1192).

The labels stand for the following.
B1: CPEB3 Ribozyme (parent)
chain: UAACAGGGGGCCACAGCAGAAGCGUUCACGUCGCAGCCCCUGUCAGAUUCUGGUGAAUCUGCGAAUUCUGCUGUAUAUCUC

The source gives no read counts; variants with many changes may rest on few reads.

The series covers variants of B1. Briefly: self-cleavage, relative activity (ratio to wild type); higher = more cleavage; in vitro, sequencing. Put shortly:
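Libraries of CPEB3 self-cleaving ribozyme mutants came from rounds of error-prone PCR and carried barcodes, which DNA sequencing matched to variants. In vitro transcription used T7 RNA polymerase at 37°C for 5 hours, with a further 15 min in DNase I before EDTA stopped the reaction; the ribozymes cleaved during both steps. The RNA was reverse transcribed with template switching and sequenced on Illumina. Relative activity is the cleaved/total read fraction of a variant divided by that of the unmutated ribozyme, averaged over three batches with at least 5 reads.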
On to C11A G33A U66C U67A, for which the self-cleavage turned out to be 0.05. The figure for C11G C44A U78C is 0.35. For C11G G24U G30A G33A U49C A65G U80C, the self-cleavage amounted to 0.09. Next, G10U U25C U58C U80C: 0.15; C11G A28G C81U: 0.19.

Turning to C11U G16A C39U U41A U48C A65G U67G, the self-cleavage came to 0.07. In the case of C11G A18G U26C A45G G70A, the self-cleavage worked out at 0.06. G10A A28G A56G U67C: the self-cleavage is 0.07.

Turning to C11U U49A U60A U74C, the self-cleavage was 0.06.

As for C11U C38U U67A, the self-cleavage was 0.07.

As for C11A C32U U69C A77G, the self-cleavage is 0.27. With C11U G33A A57G A65G, the self-cleavage was determined as 0.14. As for G10A C12U A45U U76C, the self-cleavage came to 0.06. For G10U C11A U41C A64G A75U, the self-cleavage was 0.07.

Consider C11G A15G A47G, for which the self-cleavage is 0.51. The figure for G10U U74C U80C is 0.24; for C11A U26G U43C A56G A75U it is 0.08; for C11U C17U U67C G73A it is 0.04. For C11G A18G C32A U78C, the self-cleavage stood at 0.08. For the variant C11A C14G U31A G53A U60C A65G, the self-cleavage stood at 0.04. For the variant C11G A15U G52U U78C U80C, the self-cleavage is 0.31. As for C11U A45G A57G, the self-cleavage was 0.23. As for C11U C62A U76C U78C, the self-cleavage was 0. The figure for C11U A13G A15G U60C U78C is 0.04; for C11U U26C A75G U80A it is 0.16.

Turning to G10A A35G U69C, the self-cleavage is 0.14.

As to C11G C23G A28G U49C U78C, the self-cleavage amounted to 0.05. The figure for C11G U26A C39A U49G U67G is 0.03; for G10U C32U U43G U48C A56U U78C it is 0.03; for G10U U54C U72C it is 0.4.

Take C11A C12U U51C: the self-cleavage stood at 0.3. The figure for G10A A28G U41C A56G U72C A77U is 0.05; for C11A U41A U49C U54C G63U it is 0.04; for G10A A28G U72C U76C it is 0.1. In the case of G10A A45C A56G A57U, the self-cleavage is 0.12.

Turning to G10U A18U G53A A57G, the self-cleavage was 0.05. Regarding C11G U25C C34G C50U, the self-cleavage worked out at 0.07. Turning to C11U U31C U41C A47G U51C U60C, the self-cleavage came out at 0.15. Next, G10U U41C A56G U66G U67C: 0.07; G10A A28U A35G: 0.65. As for C11U U41A U48C U54C A65G, the self-cleavage is 0.13. As to G10A U25A U43C A45U U54A, the self-cleavage came out at 0.05. Take C11G C50A U67C: the self-cleavage is 0.23.

G10C U31C U67A A77G: the self-cleavage came out at 0.08. The figure for G10A A28G A35U A64G U72C U76C is 0.07; for C11G C14U G19A U25G U78A it is 0.11; for G10C A35U U80C it is 0.06. Next, G10A C39U U51A U58A U72C: 0.06; C11G U25C U48C: 0.25. Next, G10C A20G U48C U60A U76A: 0.14; C11U A45U U76C: 0.39; C11G A15U U43C A45G: 0.43. Take G10U C11A U31C G46A U54A: the self-cleavage was found to be 0.22.

As for C11U A18C A56G, the self-cleavage was found to be 0.24.

Take G10C C23G C62A: the self-cleavage amounted to 0.1. G10A U31A A45G U69A: the self-cleavage worked out at 0.11.

For G10U A20U U26C A45U U51C G53C U80C, the self-cleavage came to 0.15. With C11A A20G A28G U72A, the self-cleavage turned out to be 0.05. With G10C A65G A75G, the self-cleavage was 0.14. Next, C11G A18U U26C U41C U49A A56G: 0.04; C11U C40A G46U A56G: 0.16; G10A C29U A77G: 0.17.

As to C11G A13G U31C C32U A56G, the self-cleavage was 0.04.

As to C11G A21G U41C A65G, the self-cleavage amounted to 0.07. The figure for C11U U49C U69C is 0.08; for C11U A35G U51G it is 1.17; for C11G U26A U48C U69G U72A it is 0.04.

Take C11U A15G A21G U51A G63C U72A U80C: the self-cleavage is 0.1. Next, C11G U26C U41G U49C U54A U67A: 0.05.

In the case of C11A U43C A57G, the self-cleavage is 0.29. On to C11U A28G C79A, for which the self-cleavage was found to be 0.26. Next, G10A U41C U43C: 0.06; G10A A21G U26C U60C U69A: 0.05. C11G A20G A35U U69A: the self-cleavage came out at 0.16.

With G10A U60A A64G U72C, the self-cleavage came out at 0.36. The figure for G10U A45U G52C U60A is 0.12; for C11G C34A U80A it is 0.06; for C11G A18G U48C A57G U58C it is 0.03. In the case of G10A A21G A56G U80A, the self-cleavage worked out at 0.2.

In the case of G10A A21U A35U U48C, the self-cleavage amounted to 0.08. Take G10C A21G U31A: the self-cleavage was 0.19. The figure for C11G U31C U41A A75G is 0.04; for C12A A13G C29G it is 0.08; for C11A A18G A21G U26C U31A U49C U60C it is 0.03.
